Assay results reported in PMC12040169 (PLOS Biology, 2025).
This is one part of the list.

system: T1, C. trachomatis L2/434/Bu expressing GFP (CTL2-GFP); set-up: species or system HeLa; C. trachomatis total inclusion area by high-content imaging, normalised to DMSO; conditions: total inclusion area; 28.5 h, 10 µM; inhibitor
T1 construct: L2/434/Bu GFP intracellular growth in HeLa cells
Procedure, shortened: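 After bulk GFP and resorufin fluorescence reads, cells were fixed, stained with Hoechst and imaged by high-content microscopy. Inclusion area and number (GFP) stood in for chlamydial growth, nuclei count (Hoechst) for host cell viability. MICs were derived as for the bulk readout.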

| SMILES | % of control remaining |
| --- | --- |
| Cc1ccc(S(=O)(=O)Nc2sccc2C(=O)Nc2ccc(F)cc2)cc1 [CBK042302] | 52.795 |
| CCC(CO)Nc1nccnc1-c1cccc(F)c1 (stereo not shown) [CBK036775] | 79.6547 |
| O=c1nc(CN2CCN(c3ncccn3)CC2)[nH]c2ccccc12 [CBK269918] | 89.3834 |
| Cc1nn(C)c(Cl)c1S(=O)(=O)Nc1ccc2cn[nH]c2c1 [CBK067141] | 91.6947 |
| COc1cc(/C=N/NC(=O)CNC(=O)c2ccncc2)ccc1O [CBK262013] | 67.096 |
| O=C1CC2CC3CC2C(Sc2ccccc2)C3O1 (stereo not shown) [CBK016225] | 57.9166 |
| N#Cc1cccc(-n2cc(-c3ccc(C(F)(F)F)cc3)nn2)c1 [CBK112957] | 83.898 |
| CCOc1ccc(S(=O)(=O)N2CCCN(Cc3cccc(C(F)(F)F)c3)CC2)c2cccnc12 [CBK062760] | 80.15 |
| COc1ccnc(Cn2ncc(N3CCCC3)cc2=O)c1OC [CBK306672] | 59.5443 |
| Cc1ccc(CN(C)C(C)C(=O)NCc2cccs2)cc1 (stereo not shown) [CBK295663] | 112.818 |
| CCc1nc2ccc(C(=O)NC3=NN(c4ccccc4)C(=O)C3)cn2c1N(C)C(=O)COc1ccccc1 [CBK145873] | 106.509 |
| Cc1nnc2n1-c1ccc(Cl)cc1C(c1ccccc1)=NN2CCCC(=O)c1ccc(F)cc1 [CBK016076] | 103.891 |
| Cc1nccc(C(=O)N2CCC3(C/C=C/C[C@H]4COCC[C@H]4NC(=O)CNC3=O)CC2)n1 [CBK292072] | 90.0714 |
| CN(C)S(=O)(=O)N(CC(=O)Nc1cccnc1)c1ccccc1 [CBK267958] | 92.4256 |
| O=C(c1ncoc1-c1ccc(F)cc1)N1CCN2CCCCC2C1 (stereo not shown) [CBK282400] | 95.109 |
| CN(c1ccc(C(=O)Nc2ccc(S(=O)(=O)N3CCCC3)cc2)cc1)S(=O)(=O)c1ccccc1 [CBK266896] | 73.6585 |
| O=C(O)CCC(=O)NCC1OCCc2ccccc21 (stereo not shown) [CBK265865] | 73.1932 |
| CCOc1ccc(CC(=O)Nc2ncccc2OCCCC#N)cc1 [CBK304062] | 22.2856 |
| COc1ccc(C(=O)OC(C)(C)C)c(-c2cncc(N3CCN(CCO)CC3)n2)c1 [CBK037239] | 156.307 |
| Cc1ccc(C2(CN3CCN(Cc4ncc[nH]4)CC3)CC2)cc1 [CBK283306] | 61.5069 |

| SMILES | % of control remaining |
| --- | --- |
| CCOC(=O)[C@H]1CC[C@]2(CC1)CNC(=O)c1cc(Cl)ccc1O2 [CBK284849] | 90.3225 |
| CC(NC(=O)COc1ccc(Cl)cc1Cl)C(=O)O (stereo not shown) [CBK261425] | 106.671 |
| CSc1nc(NC(=O)C2CCCO2)cc(N2CCNCC2)n1 (stereo not shown) [CBK026740T] | 104.03 |
| CC(C)c1ccc(NC(=O)O[C@@H]2CO[C@H]3[C@@H]2OC[C@@H]3NC(=O)c2cncnc2)cc1 [CBK289480] | 60.7189 |
| CCOC(=O)N1CCC(Nc2nc3ccccc3nc2OCc2cc(C)on2)CC1 [CBK171825] | 111.72 |
| O=C1Nc2ccc([N+](=O)[O-])cc2C1(O)N1CCCCC1 (stereo not shown) [CBK262496] | 116.416 |
| O=C(Nc1ccc(F)cc1)c1ccc(NS(=O)(=O)Cc2ccccc2[N+](=O)[O-])cc1 [CBK050405] | 69.5232 |
| NC(=O)c1c(NC(=O)c2ccc(-c3ccccc3)cc2)sc2c1CCC2 [CBK265747] | 120.049 |
| O=C(Oc1ccccc1O)c1cccc(Cl)c1 [CBK090130] | 25.8495 |
| O=C(O)C1CCN(c2ncnc3sc4c(c23)CCC4)CC1 [CBK268326] | 79.0996 |
| O=C(NC1CCCCC1)N1Cc2nc[nH]c2C[C@H]1c1nc(-c2ccc3c(c2)OCO3)no1 [CBK289000] | 77.8093 |
| O=C(c1cc(F)cc(F)c1)N1CCn2c(nnc2C2CC2)C1 [CBK283772] | 90.8483 |
| Sc1nnc(Cc2cccc3ccccc23)n1-c1ccccc1 [CBK265052] | 88.4685 |
| CC1CCCN(C(=O)N(C)C)C1 (stereo not shown) [CBK023175] | 30.6012 |
| COc1ccc(-c2nc(-c3ccc(C(=O)N4CCOCC4)cc3)cnc2N)cc1 [CBK116509] | 107.311 |
| CCOC(=O)c1ccc(-c2ccc(C(=O)Nc3ccc(-c4nc5ccccc5o4)c(O)c3)o2)cc1 [CBK263428] | 123.821 |
| CCc1nn(CC(=O)NC(C)(C)C)c(=O)c2cc3sc(C)cc3n12 [CBK284124] | 39.4601 |
| CCOC(=O)c1sc(-c2ccc3c(c2)OCO3)nc1O [CBK078565] | 118.818 |
| CCc1ccc2occ(CC(=O)Nc3ccc(C(=O)OC)cc3)c2c1 [CBK268318] | 72.5788 |
| COc1ccc(-c2cc(-c3ccccc3)nc(N/N=C/c3ccc(O)c(C)c3O)n2)cc1 [CBK261721] | 94.4544 |
